# PubChem BioAssay AID493208 (National Center for Advancing Translational Sciences (NCATS), 2011)
# Out of some 44,000 compounds screened, about 340 (0.77%) were called active. Inconclusive results (about 5%) are left out. Calls follow the shape of the dose curve; as a rule, active = well fitted inhibition curve with a large enough effect; inconclusive = small, poorly fitted or top-dose-only effect; inactive = flat fitted curve, though single readings scatter. The list shows a part of the results.
# Assay: Acumen qHTS Assay for Inhibitors of the mTORC1 Signaling Pathway in MEF (Tsc2-/-, p53-/-) Cells: Sytravon;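 also: plate controls were DMSO for no effect and rapamycin for full effect; nearly all actives have a fitted effect of over 50% in size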
# Details: phospho-rpS6 immunofluorescence/PI, 24 h; series mostly up to 38.3 µM; activity change, negative = inhibition: at the top concentration
# How it was run: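 Immunofluorescence of rpS6 phosphorylation in Tsc2-/-, p53-/- MEFs after 24 h compound exposure, normalized to propidium iodide signal. Activity is expressed as % positive cells, thresholded with 7.5 nM rapamycin.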
row,SMILES,"activity change, negative = inhibition"
1,COC(=O)c1c(NC(=O)COc2c(C)ccc(C)c2C)sc2c1CCC(C)C2 (stereo unspecified),inactive: 1.59%
2,CC1=C(C(=O)Nc2cccnc2)C(c2ccc(Cl)cc2)n2nc(SCc3ccccc3)nc2N1 (stereo unspecified),inactive: -3.77%
3,Cc1ccc(-n2nc(C(=O)Nc3cccc(C#N)c3)c3c4ccccc4n(C)c3c2=O)cc1,inactive: -0.403%
4,CCOc1ccc(NC(=O)[C@H](Cc2ccccc2)N2Cc3ccccc3C2=O)cc1,inactive: -0.231%
5,O=S(=O)(Nc1cccc(-c2ccc(N3CCOCC3)nn2)c1)c1ccccc1C(F)(F)F,inactive: 4.3%
6,CCN(CC)c1cc2c(cc1F)c(=O)c(S(=O)(=O)c1ccc(C)cc1)cn2Cc1ccc(F)cc1,inactive: 3.26%
7,CCCSc1nc2c(c(=O)[nH]1)C(c1ccc(F)cc1F)CC(=O)N2 (stereo unspecified),inactive: 0.178%
8,O=C(Cn1ncc2ccsc2c1=O)N1CCN(c2ccccc2)CC1,inactive: 3.79%
9,CCCN1CCN(c2ncnc3sc(C(=O)Nc4cccc(Cl)c4C)c(C)c23)CC1,inactive: 0%
10,O=C(NCCc1ccc(Cl)cc1)c1nc(-c2cccc(F)c2)n2c1CCCCC2,inactive: -3.13%
11,CCOC(=O)c1c(C)c(C(=O)NCc2ccc(Cl)cc2)c(C)n1CC,inactive: -1.76%
12,COc1ccc(NC(=O)CSc2nc3c(c(=O)[nH]2)CCC3)cc1,inactive: 0.515%
13,CC(C)c1ccccc1Oc1c(C(F)(F)F)oc2c(CN3CCN(C)CC3)c(O)ccc2c1=O,inactive: -3.12%
14,Brc1ccc(CN2CCc3nc(N4CCN(c5ncccn5)CC4)ncc3C2)cc1,inactive: 6.63%
15,O=C(Cn1c(=O)n(CCc2ccccc2)c(=O)c2c3c(sc21)CCCC3)Nc1ccc(F)c(F)c1,inactive: -1.8%
16,CCCc1nnc(NC(=O)Cc2coc3ccc(C)cc23)s1,inactive: 3.4%
17,CCOc1ccccc1Nc1sc(C(=O)c2ccc(Cl)cc2)c(N)c1C(=O)NCCc1ccccc1,inactive: -0.889%
18,Cc1ccccc1NC(=O)CSc1nc2ccccc2c2nc(CCn3c(C)nc4ccccc43)nn12,inactive: -8.58%
19,Cc1ccc(CNC(=O)c2cn(C)c3ccc(S(=O)(=O)N4CCOCC4)cc3c2=O)cc1,inactive: -5.01%
20,COc1ccccc1N1CCN(C(=O)c2cc3c(=O)oc4ccc(C)cc4c3s2)CC1,inactive: -4.18%
21,CCOc1ccc(-c2nc(CNC(=O)Nc3ccccc3)c(C)o2)cc1,inactive: 0%

row,SMILES,"activity change, negative = inhibition"
1,COc1ccc(OC)c(S(=O)(=O)Nc2cccc(-c3ccc(N4CCCCCC4)nn3)c2)c1,inactive: 0.815%
2,COc1ccc(NCc2cc3ccc(OC)cc3n(CC(=O)Nc3cccc(OC)c3)c2=O)cc1,inactive: -9.89%
3,COc1cc(NC(=O)c2nn(-c3ccc(F)cc3)c(=O)n(C)c2=O)cc(OC)c1OC,inactive: -7.96%
4,CCn1c(C(=O)N2CCC(C(=O)NCCCOC)CC2)cc2sccc21,inactive: -6.45%
5,O=C(COCc1cc(-c2cccs2)on1)NCc1cccc(Cl)c1,inactive: -5.9%
6,Cc1cc(C)c(/C=C/c2onc(C)c2S(=O)(=O)N2CCC(C(=O)Nc3ccc(Cl)cc3C)CC2)c(C)c1,inactive: 1.23%
7,Cc1ccccc1NC(=O)c1c(NC(=O)C(F)(F)F)sc2c1CCCCC2,inactive: 7.12%
8,Cc1cn(S(=O)(=O)c2ccc(F)c(Cl)c2)cn1,inactive: 5.08%
9,CC1=C(c2ccc(C)cc2)S(=O)(=O)N(Cc2ccc(C(=O)NCc3ccccc3F)cc2)C1=O,inactive: -5.32%
10,Cc1ccc(C(=O)c2sc(Nc3ccc(F)cc3)nc2N)c(C)c1,inactive: -10.1%
11,CC(=O)c1ccc(NC(=O)Cn2c(=O)oc3cc(S(=O)(=O)N4CCCCC4)ccc32)cc1,inactive: 2.94%
12,Cc1ccc2c(c1)C(C)(c1ccccc1)CC(C)(C)N2C(=O)c1ccc(F)cc1 (stereo unspecified),inactive: -4.17%
13,COc1ccc(-c2nc(CNC(=O)NC3CCCCC3)c(C)o2)c(OC)c1,inactive: 0%
14,O=C1CCCc2[nH]c(=O)c(-c3nc(-c4cccc([N+](=O)[O-])c4)cs3)cc21,inactive: -1.05%
15,O=C(CCCn1c(=O)[nH]c2ccccc2c1=O)N1CCN(c2ccccc2)CC1,inactive: -6.97%
16,CCOC(=O)c1cc2c(=O)n3ccccc3nc2n(Cc2ccco2)c1=NC(=O)c1ccc(F)cc1,inactive: 2.05%
17,O=C(CN1C(=O)COc2ccc(S(=O)(=O)N3CCOCC3)cc21)N1CCN(c2ccc(Cl)cc2)CC1,inactive: -15.2%
18,O=S(=O)(NCCc1cn2ccsc2n1)c1ccc(Cl)cc1,inactive: -8.95%
19,CCCCCCc1cc2cc(-c3cn4c(n3)sc3cc(OC)ccc34)c(=O)oc2cc1O,inactive: -0.916%
20,O=C(Nc1cccc(Cl)c1)c1cc(S(=O)(=O)N2CCC3(CC2)OCCO3)ccc1F,inactive: -19.9%
21,CCN(CCCNC(=O)Cn1ncc2c3ccccc3n(C)c2c1=O)c1cccc(C)c1,inactive: -3.02%

row,SMILES,"activity change, negative = inhibition"
1,Cc1ccccc1C(=O)n1nc(-c2cccnc2)nc1NCc1ccc(F)cc1,inactive: 5.09%
2,COc1cc(OC)c(NC(=O)Cn2cnc3c(nc4n3CCCCC4)c2=O)cc1Cl,inactive: 2.86%
3,Cc1cc(OCC(=O)Nc2nc3c(s2)CCCC3)cc(C)c1Cl,inactive: 0.573%
4,CCOC(=O)c1ccccc1NC(=O)COc1cc(=O)n(CC)c2ccccc12,inactive: -2.46%
5,CCOc1ccccc1NC(=O)Cn1c(=O)n(Cc2ccccc2)c(=O)c2c3c(sc21)CN(C(C)=O)CC3,inactive: -4.71%
6,O=C(CCC1N=C2c3ccccc3N=C(SCc3ccc(Cl)cc3)N2C1=O)NC1CCCCC1 (stereo unspecified),inactive: 1.28%
7,Cc1cccc(C)c1NC(=O)Cn1c(=O)cc(C)c2c(C)nn(-c3cccc(Cl)c3C)c21,inactive: -2.33%
8,Cc1ccc(-n2ncc3c(N4CCCCC4)ncnc32)cc1,inactive: 11.8%
9,COc1ccc(NC(=O)CC(C)S(=O)(=O)c2ccc3c(c2)NC(=O)CO3)cc1OC (stereo unspecified),inactive: 1.87%
10,O=C(CN1CCN(C2CCCCC2)C(=O)C1=O)Nc1ccc(Cl)cc1,inactive: 0.235%
11,CCC(=O)Nc1ccccc1C(=O)OCc1cc(=O)n2cc(C)sc2n1,inactive: 9.33%
12,COc1ccc(OC)c(NC(=O)Cn2c(CCC(=O)O)ccc2-c2ccccc2)c1,inactive: 5.36%
13,CC(C)CCN1C(=O)c2ccccc2CC1(C)C(=O)NC1CCCCC1 (stereo unspecified),inactive: -6.24%
14,CC1CC(=O)N(CC(=O)Nc2ccc(OC(F)(F)F)cc2)c2ccccc2S1 (stereo unspecified),inactive: -11.1%
15,CCCN1CCN(C(=O)Cn2ncc3c4ccccc4n(Cc4cccc(Cl)c4)c3c2=O)CC1,inactive: 0.728%
16,O=C(Nc1c(C(=O)N2CCN(c3ccccc3)CC2)oc2ccccc12)c1ccccc1F,inactive: -3.29%
17,Cc1cccc(N(C)C(=O)c2cc3c(=O)oc4ccc(C)cc4c3s2)c1,inactive: -4.46%
18,CCOc1ccc(-n2nc3ccc(NC(=O)c4ccc(C)cc4C)cc3n2)cc1,inactive: 0.367%
19,Cc1ccc(CCNC(=O)c2cc3cc(S(=O)(=O)N4CCCCC4)ccc3n2C)cc1,inactive: -0.504%
